Laboratory results published in PubChem BioAssay AID1460 (National Center for Advancing Translational Sciences (NCATS), 2008).
About 5,800 (2.1%) of roughly 270,000 compounds were called active. This list was built around the results that the source calls inconclusive (neither active nor inactive); the mix of calls is not that of the screen. The call rests on the fitted dose curve; in most records, active means well fitted inhibition curve with a large enough effect; inconclusive means small, poorly fitted or top-dose-only effect; inactive means flat fitted curve, though single readings scatter. Potencies of inconclusive entries are doubtful fits and often do not repeat.

target: Microtubule-associated protein tau (Homo sapiens) (UniProt P10636); assay: qHTS for Inhibitors of Tau Fibril Formation, Thioflavin T Binding; settings: recombinant tau K18 P301L (four-repeat tau fragment), heparin-induced fibrillization, ThT fluorescence; series mostly up to 57.4 µM; activity, negative = inhibition: at the top concentration; further: nearly all actives have a fitted effect of over 55% in size
Outline: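 K18 P301L tau (15 uM + 0.24 uM Alexa 594-tagged), heparin 20 uM, NaOAc pH 7, 6 h 37 C; ThT 30 uM, 1 h RT, ex 450/em 510 nm.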
On the % scale 0 is the no-effect control and ±100 the full control effect; potency means the concentration at half of the fitted maximal effect; tags describe the fitted curve by direction and shape.

UniProt P10636, sequence (P10636 whole entry, looked up, the tested form may be a part): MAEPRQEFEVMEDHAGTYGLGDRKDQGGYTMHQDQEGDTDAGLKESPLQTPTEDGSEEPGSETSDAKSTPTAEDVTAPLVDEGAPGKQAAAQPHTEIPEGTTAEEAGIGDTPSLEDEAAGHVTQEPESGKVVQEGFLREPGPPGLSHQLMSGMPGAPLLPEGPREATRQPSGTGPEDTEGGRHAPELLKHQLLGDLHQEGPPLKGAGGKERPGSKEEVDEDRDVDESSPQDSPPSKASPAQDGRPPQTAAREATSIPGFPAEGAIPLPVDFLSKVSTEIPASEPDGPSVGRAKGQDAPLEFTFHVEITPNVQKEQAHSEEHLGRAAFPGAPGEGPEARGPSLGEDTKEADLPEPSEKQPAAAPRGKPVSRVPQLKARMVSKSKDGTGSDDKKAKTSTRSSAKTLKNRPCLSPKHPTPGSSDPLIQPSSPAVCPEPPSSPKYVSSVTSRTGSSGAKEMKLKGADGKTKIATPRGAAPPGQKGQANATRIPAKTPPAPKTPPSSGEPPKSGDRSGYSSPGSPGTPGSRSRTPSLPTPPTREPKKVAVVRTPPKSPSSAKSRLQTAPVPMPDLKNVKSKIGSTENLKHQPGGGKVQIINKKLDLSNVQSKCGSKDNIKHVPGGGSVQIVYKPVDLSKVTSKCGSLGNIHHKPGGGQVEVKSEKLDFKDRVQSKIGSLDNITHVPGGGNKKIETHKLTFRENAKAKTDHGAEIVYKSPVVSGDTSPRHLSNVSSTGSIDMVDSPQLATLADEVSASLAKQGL

For Cc1ccc(-n2nnnc2-c2cnn(-c3ccc(F)cc3)c2C(F)(F)F)cc1, which “activity, negative = inhibition” value is on record?
Its value is inactive: -7.6%.

Which “activity, negative = inhibition” value does the source give for Cc1cccc(C)c1NC(=S)/C(=C(\[O-])c1cccs1)[n+]1ccccc1 here?
The value was inactive: -1.93%.

Cn1c(SCC(=O)N2CCCc3ccccc32)ncc(C(=O)Nc2ccccc2)c1=O was tested. Which Potency did it give?
The Potency was inconclusive: 35.5 µM [inhibitor, single point].

CN1CCCN(C(=O)c2cc(=O)[nH]c3ccccc23)c2nc3ccccc3nc21 was tested. Which Potency did it give?
Its Potency is inconclusive: 44.7 µM [inhibitor, single point].

With O=C(/C=C/c1ccc([N+](=O)[O-])cc1)Nc1ncc([N+](=O)[O-])s1 as the compound, how does the Potency read?
Its Potency is active: 3.55 µM.

Which “activity, negative = inhibition” value does the source give for Cc1ccc(-c2nnc(N3CCN(C(=O)Cn4c(=O)n(C)c5ccccc54)CC3)c3ccccc23)cc1 here?
Its value is inactive: -14.3%.

N#Cc1cc(N)ccc1Sc1ccc(Cl)cc1 was tested. Which “activity, negative = inhibition” value did it give?
The value was inactive: -15.5%.

With Cc1ccc2c(c1)c1c(c(=O)n(-c3ccccc3)c(=O)n1CC(=O)c1ccc(F)cc1)n2C as the compound, how does the “activity, negative = inhibition” value read?
Its value is inactive: -1.53%.

How did the Potency turn out when Cc1ccc(OCCCC(=O)Nc2ccc3c(c2)OCO3)cc1 was run?
The Potency was inconclusive: 15.8 µM [inhibitor, partial curve].

How did the Potency turn out when Cn1cnc2c(NC3CCCC3)ncnc21 was run?
The Potency was “inactive”.

Which Potency does the source give for COC(=O)c1ccccc1-c1ccc(/C=N/Nc2nc(N3CCCC3)nc(N3CCCC3)n2)o1 here?
Its Potency is inconclusive: 10 µM [inhibitor, partial curve, poor fit].

With COc1ccccc1NC(=O)Nc1cccnc1 as the compound, how does the “activity, negative = inhibition” value read?
Its value is inactive: 9.9%.

O=[N+]([O-])c1ccc(N/N=C/c2ccccc2)cc1 was tested. Which Potency did it give?
The Potency was active: 3.55 µM.

With COc1ccc(CNc2ccccc2SC)cc1OC as the compound, how does the Potency read?
The Potency was inconclusive: 35.5 µM [inhibitor, partial curve].

How did the Potency turn out when Cc1cc(/C([O-])=C(/C(=S)Nc2ccc(F)cc2)[n+]2ccccc2)c(C)n1-c1ccc(F)cc1 was run?
Its Potency is active: 28.2 µM.

For CCOC(=O)c1c(NC(=O)CSc2nnc(N)s2)sc(C)c1-c1ccc(C)cc1, which Potency is on record?
The Potency was inconclusive: 31.6 µM [inhibitor, single point].

Which Potency does the source give for O=C(Nc1ccc2c(c1)OCO2)c1cnn2c(C(F)(F)F)cc(-c3ccco3)nc12 here?
The Potency was inconclusive: 2.82 µM [inhibitor, full curve].

How did the Potency turn out when Cc1cccc(C)c1OCc1cc(=O)n2c3c(sc2n1)CCCC3 was run?
Its Potency is inconclusive: 15.8 µM [inhibitor, partial curve].

COc1cc(/C=N/Nc2ccccn2)cc(OC)c1O was tested. Which Potency did it give?
The Potency was inconclusive: 14.1 µM [inhibitor, partial curve].

With Cn1cccc1/C=N/N1CCN(c2ccccc2)CC1 as the compound, how does the Potency read?
Its Potency is inconclusive: 12.6 µM [inhibitor, partial curve].

Which Potency does the source give for COc1ccc(-n2cc(-c3ccccc3)c3c(NC4CCCC4)ncnc32)cc1 here?
Its Potency is inconclusive: 15.8 µM [inhibitor, partial curve, poor fit].

Which Potency does the source give for O=C(O)c1cccc2c1C(=O)c1ccccc1-2 here?
Its Potency is inconclusive: 20 µM [inhibitor, partial curve, poor fit].

With Cc1ccc2[nH]c(=O)c(CN(C(=O)c3cccc(Cl)c3)C(C)(C)C)cc2c1 as the compound, how does the “activity, negative = inhibition” value read?
Its value is inactive: -6.78%.

With CCOC(=O)C(C)Sc1nc(-c2ccccc2Cl)cc(-c2ccccc2)c1C#N (centres undefined) as the compound, how does the “activity, negative = inhibition” value read?
The value was inactive: -6.56%.

With Cc1cc(C)cc(NC(=O)CSc2nc(=O)n(Cc3ccccn3)c3c2CCC3)c1 as the compound, how does the “activity, negative = inhibition” value read?
Its value is inactive: -15%.

For CSc1ccc(Cn2nnc(C(=O)Nc3ccc(C)cc3Cl)c2N)cc1, which “activity, negative = inhibition” value is on record?
Its value is inactive: 11.7%.

Which Potency does the source give for Cc1ccc(C(=O)COC(=O)C(Cc2c[nH]c3ccccc23)NC(=O)c2ccc(C(C)(C)C)cc2)cc1 (centres undefined) here?
Its Potency is inconclusive: 39.8 µM [inhibitor, single point].

CC[C@]1(O)C[C@@H]2CN(CCc3c([nH]c4ccccc34)[C@@](C(=O)OC)(c3cc4c(cc3OC)N(C)[C@H]3[C@@](O)(C(=O)OC)[C@H](OC(C)=O)[C@]5(CC)C=CCN6CC[C@]43[C@@H]65)C2)C1 was tested. Which Potency did it give?
The Potency was inconclusive: 28.2 µM [inhibitor, partial curve].

Which “activity, negative = inhibition” value does the source give for COc1ccccc1Cc1nc2ccccc2nc1SCC(=O)Nc1cc(Cl)ccc1OC here?
Its value is inactive: -2.69%.

With COc1ccc(NCN2C(=O)C3C4C=CC(C4)C3C2=O)cc1 (centres undefined) as the compound, how does the “activity, negative = inhibition” value read?
The value was inactive: -12.3%.

For Cc1ccc(-c2cn3c(=S)[nH]nc3s2)cc1, which “activity, negative = inhibition” value is on record?
Its value is inactive: -19.3%.

Which “activity, negative = inhibition” value does the source give for COc1ccc(CCNC(=O)c2ccc(Cn3c(=O)c4ccccc4n(Cc4cccc(C)c4)c3=O)cc2)cc1OC here?
The value was inactive: -19.5%.

For C(#CC1CCCC1)c1ccc2c(c1)COc1c3ccccc3nn1-2, which Potency is on record?
The Potency was inconclusive: 1.78 µM [inhibitor, full curve].

For Cc1ccc(S(=O)(=O)C2C(=O)N(C)C3(C)CC2c2ccccc2O3)cc1C (centres undefined), which “activity, negative = inhibition” value is on record?
Its value is inactive: -2.34%.

How did the “activity, negative = inhibition” value turn out when CC(=O)Nc1cc(N2C(=O)CCC2=O)ccc1Cl was run?
The value was inactive: 4.29%.

Cc1cc(/C=N/NC(N)=S)c(C)n1-c1ccc(Br)cc1 was tested. Which Potency did it give?
Its Potency is inconclusive: 10 µM [inhibitor, partial curve].

How did the “activity, negative = inhibition” value turn out when Fc1ccc(-c2n[nH]c(=S)n2/N=C/c2c[nH]c3ccccc23)cc1 was run?
Its value is inactive: 1.66%.

For O=C(CN1CCN(Cc2ccc(F)cc2Cl)C1=O)NCc1cccs1, which Potency is on record?
The Potency was inconclusive: 8.91 µM [inhibitor, single point].

Which Potency does the source give for Cc1ccc(/C=C/C(=O)c2ccc(C)cc2)cc1 here?
The Potency was inconclusive: 3.55 µM [inhibitor, partial curve].

For CC(=O)C1=C(C)OC(N)=C(C#N)C1c1cc([N+](=O)[O-])ccc1Cl (centres undefined), which Potency is on record?
The Potency was inconclusive: 31.6 µM [inhibitor, partial curve].

For O=C(c1ccc(Cl)c([N+](=O)[O-])c1)N(Cc1ccccc1)C1CCS(=O)(=O)C1 (centres undefined), which “activity, negative = inhibition” value is on record?
Its value is inactive: -1.44%.

Which “activity, negative = inhibition” value does the source give for O=C(O)c1ccccc1-c1nc2ccccc2c(=O)[nH]1 here?
Its value is inactive: 0.76%.

How did the Potency turn out when CCOC(=O)Nc1ccc2nc(N3CCCCCC3)sc2c1 was run?
Its Potency is inconclusive: 3.16 µM [inhibitor, partial curve].

How did the Potency turn out when COc1ccc(-c2nc3ccccc3o2)cc1NC(=O)c1ccc(Br)o1 was run?
The Potency was inconclusive: 5.62 µM [inhibitor, full curve, poor fit].

How did the Potency turn out when N#Cc1ccc(-c2ccco2)nc1SCC(=O)c1ccc(Cl)cc1 was run?
Its Potency is active: 5.01 µM.

CCSc1ncc(Cl)c(C(=O)Nc2sc3c(c2C(=O)NCc2cccnc2)CCCC3)n1 was tested. Which Potency did it give?
The Potency was inconclusive: 2.82 µM [inhibitor, full curve].

How did the “activity, negative = inhibition” value turn out when CN(C)c1ccc(C2N3CC4(C)CN2CC(C)(C3)C4O)cc1 (centres undefined) was run?
Its value is inactive: -5.79%.

Which Potency does the source give for Fc1ccc2[nH]c(-c3cccs3)cc2c1 here?
The Potency was inconclusive: 20 µM [inhibitor, partial curve].

Cc1ccc(/C=N/n2c(-c3ccco3)n[nH]c2=S)s1 was tested. Which “activity, negative = inhibition” value did it give?
Its value is inactive: -12.2%.

COc1cc(-c2nc3ccc4ccccc4c3c3c2CCC3)cc(OC)c1O was tested. Which Potency did it give?
The Potency was inconclusive: 14.1 µM [inhibitor, partial curve].

Which Potency does the source give for CCOc1ccc(NC(=O)C2CCCN(S(=O)(=O)c3c(C)noc3/C=C/N(C)C)C2)cc1 (centres undefined) here?
The Potency was inconclusive: 17.8 µM [inhibitor, partial curve].

How did the Potency turn out when CCOC(=O)C1=C(CN2CCN(c3ccc(OC)cc3)CC2)NC(=O)NC1c1ccc(Cl)cc1 (centres undefined) was run?
The Potency was inconclusive: 12.6 µM [inhibitor, partial curve].

For Nc1cc(N2CCCCC2)nc(N)[n+]1OS(=O)(=O)[O-], which Potency is on record?
Its Potency is “inactive”.

How did the Potency turn out when Cc1cc(CN2CCN(c3cccc(C)c3C)CC2)cs1 was run?
Its Potency is inconclusive: 17.8 µM [inhibitor, single point].

Which “activity, negative = inhibition” value does the source give for COCCNC(=O)CSc1nc(-c2ccccc2)[nH]c1-c1ccc(OC)cc1 here?
The value was inactive: -9.26%.

CCOc1ccccc1Nc1nc(-c2sc(NC(=O)c3cccc(Cl)c3)nc2C)cs1 was tested. Which Potency did it give?
The Potency was inconclusive: 5.01 µM [inhibitor, partial curve].

How did the “activity, negative = inhibition” value turn out when CC(=O)N1CCC(=NNC(=O)c2cccs2)CC1 was run?
Its value is inactive: -13.8%.

For N#Cc1nc(-c2ccccc2)oc1NCCCn1ccnc1, which “activity, negative = inhibition” value is on record?
The value was inactive: 13.2%.

For COc1ccc(NC(=O)Nc2cccc([N+](=O)[O-])c2)cc1Cl, which Potency is on record?
Its Potency is active: 15.8 µM.

Which “activity, negative = inhibition” value does the source give for CC(O)CNCCOc1ccccc1OCc1ccccc1 (centres undefined) here?
The value was inactive: -2.4%.

With Cc1ccc(S(=O)(=O)Nc2cccc(N(C)S(C)(=O)=O)c2)cc1[N+](=O)[O-] as the compound, how does the “activity, negative = inhibition” value read?
Its value is inactive: 3.91%.

Which “activity, negative = inhibition” value does the source give for CSCCC(=O)Nc1cc(S(=O)(=O)N2CCOCC2)ccc1N1CCN(C)CC1 here?
The value was inactive: 2.59%.

For CC1CN(C(=O)CCC(=O)Nc2cc(F)ccc2F)c2ccccc2S1 (centres undefined), which “activity, negative = inhibition” value is on record?
Its value is inactive: 0.982%.

CCOC(=O)c1ccc(NC(=O)c2nc[nH]c2C(=O)NCC(=O)OC(C)(C)C)cc1 was tested. Which Potency did it give?
The Potency was inconclusive: 35.5 µM [activator, single point].

For COc1ccccc1-c1cnnc(N/N=C/c2ccc(-c3cccc(Br)c3)o2)n1, which Potency is on record?
Its Potency is active: 3.55 µM.

O=c1c2ccccc2nc(SCc2ccc([N+](=O)[O-])cc2)n1-c1ccccc1 was tested. Which Potency did it give?
Its Potency is inconclusive: 14.1 µM [inhibitor, partial curve].

Which Potency does the source give for Cc1ccc(NC(=O)c2c(C)nc3sc(C(=O)Nc4ccc(F)cc4)c(N)c3c2-c2ccc(C)o2)c(C)c1 here?
The Potency was inconclusive: 2.24 µM [inhibitor, full curve].

Which Potency does the source give for Nc1cc(=O)[nH]c(N2CCN(c3ccccc3)CC2)n1 here?
Its Potency is inconclusive: 22.4 µM [inhibitor, partial curve, poor fit].

Which Potency does the source give for Cc1cc(Cl)ccc1OCC(=O)OCC(=O)Nc1ccc(F)c([N+](=O)[O-])c1 here?
The Potency was inconclusive: 1.78 µM [inhibitor, partial curve].

For CCCOc1ccc(C(=O)NCC2OCCc3ccccc32)cc1 (centres undefined), which Potency is on record?
The Potency was inconclusive: 7.94 µM [inhibitor, partial curve].

How did the Potency turn out when CC(=O)Nc1ccc(O)c(-c2nc3ccccc3s2)c1 was run?
Its Potency is inconclusive: 2 µM [inhibitor, full curve].

Which Potency does the source give for COc1ccc(/C=C/C(=O)c2c(C)nc3ccccn23)cc1 here?
Its Potency is inconclusive: 28.2 µM [inhibitor, partial curve].

For COCCNC(=S)N/N=C(\C)c1ccc2cc(OC)ccc2c1, which Potency is on record?
The Potency was inconclusive: 3.55 µM [inhibitor, full curve].

With COc1ccc2nc(N3CCCCC3)c(C#N)cc2c1 as the compound, how does the “activity, negative = inhibition” value read?
The value was inactive: -7.05%.
